Assay results from the RNAGym collection of RNA variant scans (doi:10.1093/nar/gkz1192).
The source gives no read counts; variants with many changes may rest on few reads.

B1: CPEB3 Ribozyme (parent)
chain: UAACAGGGGGCCACAGCAGAAGCGUUCACGUCGCAGCCCCUGUCAGAUUCUGGUGAAUCUGCGAAUUCUGCUGUAUAUCUC

Variants of: B1
Experiment: self-cleavage, relative activity (ratio to wild type); higher = more cleavage; in vitro, sequencing
Outline: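 Barcoded CPEB3 ribozyme mutants, produced by rounds of error-prone PCR, self-cleaved while being transcribed with T7 RNA polymerase for 5 hours at 37°C and during a subsequent 15 min DNase I step before EDTA was added. Sequencing of template-switched cDNA on Illumina gave cleaved and total reads, and DNA sequencing assigned barcodes to variants. Each variant's relative activity is its cleaved/total read fraction divided by the unmutated ribozyme's fraction, averaged across three batches. A variant needed a minimum of 5 reads.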

Variant | self-cleavage
A5U G24U A28C U51A A56G U60C U72G | 0.57
A5U G30A U58A | 0.26
A5U G30U U41G U48C U74A | 0.21
A5U G30U U51G | 0.25
A5U G33A A56U U58C A64U | 0.1
A5U G33A U54C U60A A64C U72A | 0.09
A5U G33C C71U U72A | 0.08
A5U G33U A47G G53U U60G U66C | 0.09
A5U G33U A56G U80A | 0.24
A5U G36A U49C U78A | 0.11
A5U G36U U72C A77U | 0.22
A5U G42U U58A | 0.1
A5U G52C U72A | 0.81
A5U G53C U58C G61C A64U U69A U72C | 0.15
A5U G55A A57G | 0.62
A5U G55A U67C | 0.23
A5U G61U A64U | 0.16
A5U G63U U80C | 1.15
A5U U25A A35G C40U A56G U67C | 0.09
A5U U25A A45U A64U | 0.15
A5U U25A A64G | 0.2
A5U U25A C29A C37A U69C | 0.18
A5U U25A C40A U58C U67C U72A | 0.08
A5U U25A C40U U66A | 0.66

Variant | self-cleavage
A5U U25A U26A A56G A57C | 0.25
A5U U25A U26C A45G G55A A56U | 0.16
A5U U25A U41A G70A | 0.23
A5U U25A U43C U54C U72C U76C C79G | 0.07
A5U U25C A28G C44A | 0.3
A5U U25C A28G U41C U74C | 0.11
A5U U25C A28G U54C U69A U72C | 0.12
A5U U25C A28G U60A | 0.44
A5U U25C A35U U78C U80A | 0.09
A5U U25C A56U A64U | 0.16
A5U U25C A56U U60A U80C | 0.11
A5U U25C A57G A65G U78A | 0.14
A5U U25C A65G U72C | 0.18
A5U U25C C27U G63U | 0.29
A5U U25C C40U A47G U51A C79U | 0.08
A5U U25C C40U A56C A57U | 0.38
A5U U25C G53C U74C | 0.21
A5U U25C G55U U69C U80C | 0.22
A5U U25C U31C A45G U60A U67C | 0.13
A5U U25C U41A U60A | 0.23
A5U U25C U41C | 0.17
A5U U25C U41C U69C U72A U74A | 0.08
A5U U25C U49A U74C | 0.46
A5U U25C U51C | 0.35

Variant | self-cleavage
A5U U25C U54G U67C U80G | 0.47
A5U U25C U69C | 0.31
A5U U25C U74C | 0.3
A5U U25C U78C | 0.24
A5U U25G C40U | 0.31
A5U U25G U26A U48C U72C | 0.1
A5U U26A A35G A47G U48A U58C U69C | 0.91
A5U U26A A35U | 0.26
A5U U26A A47G U49A U60C A64U | 0.12
A5U U26A U31C A56G U58G U69C U78C | 0.07
A5U U26A U41A U54A U67C A77G | 0.12
A5U U26A U41C A56G | 0.33
A5U U26A U41G A56G | 0.21
A5U U26A U51A U60C | 0.41
A5U U26C A28C A57G C68A U72A | 0.09
A5U U26C A28U G42A U51C A56G | 0.18
A5U U26C A28U U31A G36A A45U | 0.11
A5U U26C A45G A47U | 0.23
A5U U26C C32A U41C A45G U54A U72C | 0.08
A5U U26C C39U A45U U49C A57G U69C | 0.06
A5U U26C C40U U67A | 0.15
A5U U26C C62U A64C U72C | 0.25
A5U U26C U31C U43C U60C U72C | 0.12
A5U U26C U31C U78A | 0.62

Variant | self-cleavage
A5U U26C U41A U43G U67A | 0.19
A5U U26C U48C | 0.68
A5U U26C U54C A64U U72C U80A | 0.21
A5U U26C U54C U60C A65G U69A | 0.17
A5U U26C U69A | 0.3
A5U U26C U69G | 0.28
A5U U26G U54C A57C | 0.35
A5U U31A A45G U48C A64G | 0.04
A5U U31A U48C | 0.61
A5U U31A U72C | 0.83
A5U U31A U80C | 0.56
A5U U31C A35U A77G | 0.41
A5U U31C C34U A47G A57G A75G | 0.07
A5U U31C G33A | 0.24
A5U U31C G36A A45G | 0.15
A5U U31C U43C U48A U72C A77U | 0.07
A5U U31C U48C A56G U58C U60A U78A | 0.16
A5U U31G A35C | 0.49
A5U U31G U41A | 0.38
A5U U41A A45C A57G | 0.19
A5U U41A A45G | 0.35
A5U U41A A56U | 0.35
A5U U41A A56U A65G | 0.11
A5U U41A A64G | 0.29

Variant | self-cleavage
A5U U41A A65U | 0.19
A5U U41A G55A U66C | 0.27
A5U U41A U80C | 0.36
A5U U41C A45U U51C G52U | 0.69
A5U U41C A47G G55A U72C | 0.83
A5U U41C A47G U58A A64G | 0.33
A5U U41C A57G | 0.99
A5U U41C A65G | 0.73
A5U U41C G53A A65C G73U | 0.22
A5U U41C G55A U78C | 0.94
A5U U41C G63U U69C U76G A77U | 0.63
A5U U41C U48C A56G A57U U80A | 0.2
A5U U41C U51A | 0.83
A5U U41C U54A | 0.98
A5U U41C U54C U78C | 0.98
A5U U41C U58C | 0.35
A5U U41C U74C | 1.23
A5U U41G U72C | 0.32
A5U U43A A57G | 0.8
A5U U43A A64U | 0.44
A5U U43A A75G | 1.02
A5U U43A U49A A57G U58A U76A U80A | 0.32
A5U U43A U51C G63U | 1.24
A5U U43C A45G | 0.66

Variant | self-cleavage
A5U U43C G61A U76C | 0.19
A5U U43C G63A U69A | 0.23
A5U U43C U48C | 0.13
A5U U43C U48C U54A A56G U60C U72C | 0.33
A5U U43C U58C U60A A64U U69A U72C | 0.14
A5U U43C U69C | 0.33
A5U U43C U69G U80A | 0.32
A5U U43C U72C | 1.06
A5U U43C U78C | 0.69
A5U U43G A57G U74A | 0.44
A5U U43G G46U | 0.07
A5U U48A U49C A56U U60A | 0.11
A5U U48C A56G A64U U69C | 0.19
A5U U48C A64G U67A U76C | 0.08
A5U U48C C50G | 0.42
A5U U48C C50G U60C | 0.18
A5U U48C U51C U60C C62U | 0.35
A5U U48C U58C A75G | 0.08
A5U U48C U60C U78A | 0.19
A5U U49A U51C U72C | 1.07
A5U U49C A57G | 0.51
A5U U49C A57G A64U | 0.07
A5U U49C A75G | 0.43
A5U U49C C50U A56C U80C | 1.09

Variant | self-cleavage
A5U U49C C81A | 0.53
A5U U49C G53A U60C | 0.38
A5U U49C U60A A64G | 0.1
A5U U49C U60C | 0.23
A5U U49G U60A | 0.28
A5U U51A A77G | 1.12
A5U U51A G53U A64G U76G | 1.25
A5U U51C A56U U58C U72G | 0.4
A5U U51C U60C G63A | 0.45
A5U U51C U69C | 0.88
A5U U51C U78C | 1
A5U U54A A57G U67A U76G A77G | 0.11
A5U U54A U67C | 0.3
A5U U54A U69C U74A U80A | 1.16
A5U U54C A64U U72A | 0
A5U U54C A65G | 0.26
A5U U54C C71U U72C | 1.01
A5U U54C U76C | 1.15
A5U U58A A64C U74C A75U | 0.3
A5U U58A A65G U78C | 0.15
A5U U58C A75G | 0.52
A5U U58C C68A | 0.45
A5U U58C U60A U74C | 0.24
